The other results are listed elsewhere or left out.
What follows are sequences tested against T1, OsWOX13 (Oryza sativa, UniProt Q5QMM3 1-267) (assay: protein-binding microarray (RPBM); PBS, 2% BSA, 51.3 ng/ul salmon testes DNA, 50 uM zinc acetate, 200 nM TF, 25 C, 1 h; high values mean tight binding). Settings: protein: recombinant; tags: N-terminal polyhistidine and DsRed monomer fusion (pET32a); label: CyDye5-dUTP incorporated in the synthesized complementary strand; 3' TTTTT single-stranded linker to array surface; dsDNA, one strand shown.
T1 sequence: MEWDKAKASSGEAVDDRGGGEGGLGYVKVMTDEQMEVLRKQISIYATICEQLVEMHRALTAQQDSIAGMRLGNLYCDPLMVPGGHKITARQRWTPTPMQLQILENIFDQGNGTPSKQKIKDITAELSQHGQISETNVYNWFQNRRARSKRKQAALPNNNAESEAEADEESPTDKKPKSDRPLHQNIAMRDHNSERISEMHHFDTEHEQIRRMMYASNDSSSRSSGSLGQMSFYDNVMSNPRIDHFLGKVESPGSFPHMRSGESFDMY
Outline: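 Binding signal here means per-feature fluorescence intensity in arbitrary units. The values were read on an Axon 4000B scanner after a custom Agilent array, double-stranded by primer extension with Cy5-dUTP, was incubated with 200 nM protein at 25 °C for 1 h in PBS with 2% BSA, salmon testes DNA and 50 µM zinc acetate, then washed. The proteins were transcription factors with an N-terminal polyhistidine tag and DsRed, expressed in E. coli BL21-CodonPlus and purified on Ni–NTA.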
“GGAGGGAGTAGAATAATGATTGATTTAAGTTAATACTAGCCGGAGTCACCTAGTGCAG” was tested, and the binding signal was 23500 fluorescence intensity (a.u.).
For “GTAATTGCTAAAGTTTATCTCTAATATTTCTCGACGAGATCGGAGTCACCTAGTGCAG”, the binding signal was 5280 fluorescence intensity (a.u.).
With “GTATAAATTGATTATTTTATTGAACCGATGGTTGAAGTGACGGAGTCACCTAGTGCAG” the binding signal was 35400 fluorescence intensity (a.u.).
For “GGTAATTGATTATGCACCTGATCTAGATACATGTACAGCTCGGAGTCACCTAGTGCAG”, the binding signal was 61800 fluorescence intensity (a.u.).
“ATGTATTTAATTATAGATTTAATAAAATTAATCTAGTGTTCGGAGTCACCTAGTGCAG” was tested, and the binding signal was 17500 fluorescence intensity (a.u.).
With “ATAAAGATAGATATATAGATAGATATAGATAGGTAGATAGCGGAGTCACCTAGTGCAG” the binding signal was 12700 fluorescence intensity (a.u.).
With “TCATTAATTATCACTCTTCATCCGCCCCTACGTATGAAACCGGAGTCACCTAGTGCAG” the binding signal was 23700 fluorescence intensity (a.u.).
With “GGAAGAAATTAGTGCTCTTCAATTAGAAGTCGACAAGGCACGGAGTCACCTAGTGCAG” the binding signal was 4510 fluorescence intensity (a.u.).
With “GATAACTGGATATTTACAACAAAATAACTTATGAGGTGAACGGAGTCACCTAGTGCAG” the binding signal was 13100 fluorescence intensity (a.u.).
For “CCAGTCAATTAGTCAAACCCCATCCACCTCTCCTGGCTCTCGGAGTCACCTAGTGCAG”, the binding signal was 25700 fluorescence intensity (a.u.).
For “CTAACATGATCAAATAATCACTCGATTCAATGAGTTACCGCGGAGTCACCTAGTGCAG”, the binding signal was 8880 fluorescence intensity (a.u.).
With “TGACGAGAGATTCAAATGTAAAAGTTAACCTAATGAAAACCGGAGTCACCTAGTGCAG” the binding signal was 6000 fluorescence intensity (a.u.).
For “AGTAATTGATTGGCCGGATGCTACCGGTAGTTACTGACTACGGAGTCACCTAGTGCAG”, the binding signal was 60500 fluorescence intensity (a.u.).
“CTTTTATGCGTAATTGCGCCATGATTTGACAATGTGTTGCCGGAGTCACCTAGTGCAG” was tested, and the binding signal was 30400 fluorescence intensity (a.u.).
With “TTAATTTATTCCATAGATTGTGTTTTATGATGTACTGTTGCGGAGTCACCTAGTGCAG” the binding signal was 24400 fluorescence intensity (a.u.).
With “CTACCATCTGATTGGGCTGTGTTTGGGCTCAGGCATTGGCCGGAGTCACCTAGTGCAG” the binding signal was 19100 fluorescence intensity (a.u.).
In the case of “CCAAACAAAATTATAAGAAATCATATAATAATAACCAAGACGGAGTCACCTAGTGCAG”, the binding signal was 4540 fluorescence intensity (a.u.).
For “TAACTAAATGTACAAACAGACGAGTAATGACATGGAGGTTCGGAGTCACCTAGTGCAG”, the binding signal was 5660 fluorescence intensity (a.u.).
With “AAATTGATTTTGACAGACAATTCCTTAAGAGGGCCGCTTACGGAGTCACCTAGTGCAG” the binding signal was 41300 fluorescence intensity (a.u.).
In the case of “ATAATGAAATAATTATTGATCAACTATTTAAAGAGTTTATCGGAGTCACCTAGTGCAG”, the binding signal was 22700 fluorescence intensity (a.u.).
“ACCTGACCTAATCCATCAATCAAGGAGCATGCTAAAAGGACGGAGTCACCTAGTGCAG” was tested, and the binding signal was 25200 fluorescence intensity (a.u.).
With “CATAAACATCAAATAAAATGAGCTAACATTAATACAGGTCCGGAGTCACCTAGTGCAG” the binding signal was 3210 fluorescence intensity (a.u.).
With “TTACATAATCTTAATCTTCATCTATCATGGCCCCTCTCACCGGAGTCACCTAGTGCAG” the binding signal was 4160 fluorescence intensity (a.u.).
With “ACTCCACACACTGATCAACACTAATCAGCATGTACATTTGCGGAGTCACCTAGTGCAG” the binding signal was 4090 fluorescence intensity (a.u.).
“TTTCACCGTCAATTCTCTCGTGTAAACTCCCAATCCCCTTCGGAGTCACCTAGTGCAG” was tested, and the binding signal was 5490 fluorescence intensity (a.u.).
In the case of “GGAAGCAAATTAACTGAAGTTTTGCGGGATTCCTTCATTGCGGAGTCACCTAGTGCAG”, the binding signal was 9480 fluorescence intensity (a.u.).
With “CTGCTTAACATTTTAGATTACCACATAATGTTAACTCCAACGGAGTCACCTAGTGCAG” the binding signal was 10400 fluorescence intensity (a.u.).
With “CGCAATTGGTACTTATGATCATATTTAGGTGCTTCAATGACGGAGTCACCTAGTGCAG” the binding signal was 6110 fluorescence intensity (a.u.).
In the case of “AAAATAAATTCATAGGTTAACTAAATATATTTATACTACTCGGAGTCACCTAGTGCAG”, the binding signal was 4400 fluorescence intensity (a.u.).
For “AGCAAATCAAGTGCAAATATGCAATGAGCAAATTACTGCGCGGAGTCACCTAGTGCAG”, the binding signal was 4330 fluorescence intensity (a.u.).
For “ATGCAAGCAATCACAATTCACAATAGATGTAACAATATCGCGGAGTCACCTAGTGCAG”, the binding signal was 4430 fluorescence intensity (a.u.).
“TATGATTTATTTTATATCAGTTCAAAATATAGGCATTATGCGGAGTCACCTAGTGCAG” was tested, and the binding signal was 21500 fluorescence intensity (a.u.).
With “GGCAATGATTAATTATCTATTAGTAATGTGTTAACCAGGACGGAGTCACCTAGTGCAG” the binding signal was 42700 fluorescence intensity (a.u.).
For “CGCTGACGAGTTTCACCAGGATGAAACTCTTTCCTTCTCTCGGAGTCACCTAGTGCAG”, the binding signal was 9810 fluorescence intensity (a.u.).
With “GTACTTGCGTTTGCATGATTGAGCAGCTGAAACCAACAGCCGGAGTCACCTAGTGCAG” the binding signal was 8080 fluorescence intensity (a.u.).
With “TTTGATCAAACTTTTAAAACTTTGATCATCAATAACATCTCGGAGTCACCTAGTGCAG” the binding signal was 3890 fluorescence intensity (a.u.).
With “AGATCAATCATATACCATTAGTGTATTTGTTTCTTTGTCACGGAGTCACCTAGTGCAG” the binding signal was 30600 fluorescence intensity (a.u.).
With “ATCAGATTGAGGAACACGTTACCAAGTTTGGTATTGCGGACGGAGTCACCTAGTGCAG” the binding signal was 17900 fluorescence intensity (a.u.).
For “CGGGTGATTTTCTTGGATTTGTCCCCTTTCTCGTGTTAGCCGGAGTCACCTAGTGCAG”, the binding signal was 13800 fluorescence intensity (a.u.).
With “ACTCATAATTTAAGAAGTACTGACCAAAATTTGAAACTTTCGGAGTCACCTAGTGCAG” the binding signal was 3800 fluorescence intensity (a.u.).
For “ATCTCGAGGGGAGAAATGGATTGATTACCTGCTCGACGTGCGGAGTCACCTAGTGCAG”, the binding signal was 5990 fluorescence intensity (a.u.).
In the case of “TTGCAATATTTGTGAAATTAATTGAAGAAATTAAGAAGAACGGAGTCACCTAGTGCAG”, the binding signal was 19600 fluorescence intensity (a.u.).
